Measurements reported in PubChem BioAssay AID1347120 (National Center for Advancing Translational Sciences (NCATS), 2019).
Out of some 390,000 compounds screened, about 930 (0.24%) were called active. The inconclusive results got no clear call from the source; some entries with a clear call stand among them for comparison. Calls follow the shape of the dose curve; as a rule, active = well fitted activation curve with a large enough effect; inconclusive = small, poorly fitted or top-dose-only effect; inactive = no such curve, though single readings can be large or run the other way. Potencies beside an inconclusive call are fits to weak or partial responses and may not hold up.

experiment: qHTS for Suppressors of FUS Proteinopathy: Primary screen using FUS-linked yeast assay; also: nearly all actives have a fitted effect of over 55% in size;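 as to growth rescue (activation): plate controls were DMSO vehicle for no effect and reference control for full effect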; details: S. cerevisiae FUS-expressing, OD600, 24 h; Potency: growth rescue; growth rescue (activation): at 76.6 µM (top of the series)
Summary of the method: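 Cultures pregrown in 2.5% raffinose medium are shifted to minimal medium containing 2% galactose to express toxic FUS. Compounds are tested at several concentrations. After 24hr at 30C, growth is quantified at 600 nm absorbance.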
Potency is read from the fitted curve at half-maximal effect; tags tell the direction and shape of the fitted curve.

SMILES | Potency | growth rescue (activation)
COC(=O)[C@]12C[C@H](CC(=O)NCc3ccccc3)C(=O)N(CCc3ccc(OC)c(OC)c3)C1=C[C@H](C(C)C)O[C@@H]2C1CC1 | inconclusive: 8.91 µM [activator, partial curve] | –
Cc1nn(C(C)C(=O)NC2CCCCC2)c(=O)c2nn(-c3ccccc3)c(C)c12 (centres undefined) | inconclusive: 12.6 µM [activator, partial curve, poor fit] | –
C=CC[C@@H](CC(=O)N(CCO)Cc1ccccc1)C(=O)N[C@H](COC(=O)[C@@H](CC=C)CC(=O)OC(C)(C)C)c1ccccc1 | inconclusive: 20 µM [activator, partial curve] | –
COc1cc2c(cc1OC)C1(Nc3c-2c(C)nn3-c2ccccc2)C(=O)Nc2ccccc21 (centres undefined) | inconclusive: 5.62 µM [activator, partial curve] | –
CCN(CC)S(=O)(=O)c1cccc(NC(=O)C2SC(=Nc3ccc(C)cc3C)C(C(=O)NCC3CCCO3)=C2N)c1 (centres undefined) | inconclusive: 25.1 µM [activator, partial curve, poor fit] | –
Cc1ccc(C)c(NC(=S)N2CCC(c3nc4ccccc4s3)CC2)c1 | inconclusive: 25.1 µM [activator, partial curve, poor fit] | –
O=C(NCC(c1cccnc1)N1CCN(Cc2ccccc2)CC1)C(=O)Nc1cccc(Cl)c1 (centres undefined) | – | inactive: 15.9%
COc1ccc(OC)c(-c2cc(C(=O)Nc3c(C)nn(Cc4ccccc4C)c3C)no2)c1 | – | inactive: 31.9%
COc1ccc(CCNc2nc3cc(OC)c(OC)cc3c3nc(-c4ccccc4)nn23)cc1OC | inconclusive: 28.2 µM [activator, single point] | –
CCOCc1[nH]c(=S)[nH]c(=O)c1Cc1ccc(OCC(C)C)cc1 | inconclusive: 50.1 µM [activator, single point] | –
COc1ccc(-c2nn(-c3ccc(C)cc3)c3c2cnc2ccc(C)cc23)cc1OC | – | inactive: 3.81%
O=[N+]([O-])c1ccc(Cl)c(S(=O)(=O)Nc2cccc(S(=O)(=O)NC3=NCCC3)c2)c1 | – | inactive: 7.86%
O=C1Nc2ccccc2OC1CC(=O)N1CCN(c2cccc(C(F)(F)F)c2)CC1 (centres undefined) | inconclusive: 39.8 µM [activator, partial curve, poor fit] | –
O=C1NC(=Nc2ccccc2)S/C1=C\C=C\c1ccco1 | – | inactive: 23.3%
COC(=O)c1cc(S(=O)(=O)N2CCN(c3ccccc3C)CC2)cn1C | inconclusive: 28.2 µM [activator, partial curve, poor fit] | –
COc1ccc(NC(=O)C2CCC(CNc3c(N4CCC(C)CC4)c(=O)c3=O)CC2)cc1OC (centres undefined) | inconclusive: 39.8 µM [activator, single point] | –
COc1ccc(NC(=O)COC(=O)c2c3c(nc4ccccc24)CCCC3)cc1 | inconclusive: 50.1 µM [activator, single point] | –
COC(=O)c1c(C)oc2ccc(N(C(=O)c3ccncc3)S(=O)(=O)c3cc(C)ccc3C)cc12 | inconclusive: 25.1 µM [activator, partial curve, poor fit] | –
CC(=O)c1ccc(NCCC(=O)c2ccccc2)cc1 | inconclusive: 7.08 µM [activator, full curve] | –
Cc1cnc(C(=O)Nc2ccc3c(c2)CCC3)cn1 | inconclusive: 56.2 µM [activator, partial curve, poor fit] | –

SMILES | Potency | growth rescue (activation)
O=C([C@@H]1C[C@H]1c1ccccc1)N1CCC(Oc2cccnc2)CC1 | – | inactive: -8.61%
COc1ccc2c(c1)c(/C=N/Nc1nc3ccccc3[nH]1)c(C)n2C | inconclusive: 39.8 µM [activator, partial curve, poor fit] | –
CCCCC[C@@H]1CCCCC[C@@H](O)C[C@@H](O)[C@H](O)/C=C/C(=O)O1 | – | inactive: 21.4%
COc1ccc(CCNc2ncnc3c2[nH]c2cc(OC)c(OC)cc23)cc1OC | inconclusive: 31.6 µM [activator, single point] | –
Cc1ccc(C(=O)Oc2cc(-c3ccc4c(c3)OCO4)cc(=O)c3c(C)oc(C)c23)cc1 | inconclusive: 50.1 µM [activator, single point] | –
CCOC(=O)c1nn(-c2ccc(C)cc2)c(=O)cc1OCC(=O)N1CCN(c2ccccc2)CC1 | inconclusive: 14.1 µM [activator, partial curve, poor fit] | –
C=CCC[C@H](Cc1ccc(F)cc1)C(=O)OC[C@@H](C)NC(=O)[C@@H](CC=C)CC(=O)N[C@H](CO)Cc1ccccc1 | active: 25.1 µM | –
CN(CC1CCN(CCc2cccc(C(F)(F)F)c2)CC1)C(=O)c1ccc(F)cc1F | inconclusive: 11.2 µM [activator, partial curve] | –
O=C(NCCCN1CCOCC1)C(=O)NCC1OCCN1S(=O)(=O)c1ccc(Cl)cc1 (centres undefined) | – | inactive: -27%
CCNC(=O)c1cc2c(=O)n3cccc(C)c3nc2n(Cc2ccc(C)cc2)c1=N | – | inactive: 2.98%
CC1(c2ccc(Cl)cc2)CC(C)(C)N(C(=O)c2cccc(F)c2)c2ccccc21 (centres undefined) | – | inactive: 10.2%
CC(C)=CCC[C@@]1(C(=O)O)[C@@H]2C/C=C(\C)CC/C=C(\C)CC[C@H]1[C@]1(CC2)CO1 | inconclusive: 50.1 µM [activator, single point] | –
O=C(COc1ccc(Br)cc1)N1CCN(c2ccc([N+](=O)[O-])c(N3CCCCC3)c2)CC1 | – | inactive: 24.4%
COc1ccc(CCNC(=O)Cn2c(=O)n(-c3cc(F)ccc3F)c(=O)c3sccc32)cc1OC | – | inactive: 25.2%
CCn1c(NCc2ccc3c(c2)OCO3)nc2ccccc21 | – | inactive: 3.4%
Cc1cccc(N2C(=NC(=O)c3ccccc3)SC3CS(=O)(=O)CC32)c1 (centres undefined) | inconclusive: 44.7 µM [activator, single point] | –
Cc1ccccc1OCCSc1nc2ccc(NC(=O)c3cccs3)cc2s1 | inconclusive: 28.2 µM [activator, partial curve, poor fit] | –
Cc1cccc(C(=O)N2CCC(=O)N([C@H](COCc3cccc(Cl)c3)Cc3ccccc3)CC2)c1 | inconclusive: 50.1 µM [activator, single point] | –
O=C(C1=C(O)C(=O)N(CCN2CCOCC2)C1c1ccc(F)cc1)c1cc2ccccc2o1 (centres undefined) | inconclusive: 12.6 µM [activator, partial curve, poor fit] | –
